We go through 120 sequences from the supplement of paper PMC10126150.

Sequences with one replicate were seen in a single cluster, so their values are uncertain.
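Note: ATP exposure 15 min at 22 °C before imaging.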

The series deals with ATP. Nature of the series: switch fluorescence ratio, 500 uM ATP over buffer (Cy3 cluster intensity, sum of 5 cycles each) (fold (ratio)); higher = stronger signal-on switching upon ATP binding; sequences stand for … in TCGTCGGCAGCGTCAGATGTGTATAAGAGACAGTTTTTTTTTTTTTTTTTTTTTTTTT…TC. The following applies: aptamer strand: ATP DNA aptamer (quencher-CACCTGGGGGAGTATTGCGGAGGAAGG + anchor), 100 nM annealed; ATP concentration: 500 uM; one replicate. Summed up: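 The quencher-labelled ATP aptamer, at 100 nM, was annealed to Cy3-labelled switching-strand clusters on a modified Illumina MiSeq flow-cell. The clusters were imaged in selection buffer, then after 15 min with 500 uM ATP at 22 °C, and this buffer/ATP cycle ran five times with NaOH stripping and re-annealing between runs. Per-cluster fluorescence ratios, summed target-cycle over summed buffer-cycle Cy3 intensity, were averaged per switch-domain sequence. Clusters outside 100-1000 RFU were excluded.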
As to GTCGTGCAAC, the switch fluorescence ratio worked out at 1.05. Under ATGCCTGGGG stands 1.69.

GAAGACTTGG: the switch fluorescence ratio is 1.04. On to GCGCGCAGGG, for which the switch fluorescence ratio stood at 1.03.

Take ATTGATGGGT: the switch fluorescence ratio was determined as 1.02. Turning to TTAAGCGCTG, the switch fluorescence ratio came to 1. With TTCGCACTTC, the switch fluorescence ratio came out at 3.41.

As to ATTAATCGAG, the switch fluorescence ratio amounted to 1.02.

With AAGTCATTT, the switch fluorescence ratio is 0.973. As for TTTTGATA, the switch fluorescence ratio amounted to 1.03.

Take CTCTGCGGCA: the switch fluorescence ratio is 1.66.

On to TGATGGACTG, for which the switch fluorescence ratio is 0.934. In the case of AGGGTTGACG, the switch fluorescence ratio came out at 0.993. Regarding GGGGCAGATT, the switch fluorescence ratio came to 1.04.

As to CCTCTCACCT, the switch fluorescence ratio stood at 1.31. Take TGTCGGGTCT: the switch fluorescence ratio is 1.08. Under AGTGGTATAC stands 1.01; under GTCAGTATCA, 0.971; under TATTTACAGA, 1.06. Turning to ATTTGTATCT, the switch fluorescence ratio was 1.01. Consider GGTTCAATTC, for which the switch fluorescence ratio amounted to 1. For GAAGCTTCGT, the switch fluorescence ratio worked out at 1.02.

For the sequence GCTTCTGTCA, the switch fluorescence ratio amounted to 0.931. In the case of TCCAATTAAT, the switch fluorescence ratio amounted to 1.01. In the case of GGAAACAGG it was 0.983; in that of GAAGCCAGAA, 1.03.

As to TCCGGGACTG, the switch fluorescence ratio worked out at 1.05. In the case of ACAGATATAC it was 1.27; in that of CAATTAAAAG, 0.972; in that of GGTCCGCCTC, 1.18. Regarding GCCCCGGGGC, the switch fluorescence ratio turned out to be 1.04. Regarding CTGCCCCGTT, the switch fluorescence ratio was found to be 1.49. Turning to GACGGGGAGT, the switch fluorescence ratio is 0.97.

As to CTTACTATCG, the switch fluorescence ratio came out at 1.05. GGCGCAAGA: the switch fluorescence ratio turned out to be 1.3.

For the sequence CCAAATTCAA, the switch fluorescence ratio stood at 1.05.

ACCCTTTTGG: the switch fluorescence ratio amounted to 0.987. As for GAATTCTCGA, the switch fluorescence ratio turned out to be 0.98. For the sequence AGCTAAGTTT, the switch fluorescence ratio amounted to 0.987. CGGACATGTC: the switch fluorescence ratio came to 0.989. As to GCCGGATTTG, the switch fluorescence ratio is 0.986. Take ACGACAGTTT: the switch fluorescence ratio amounted to 1.01. On to AAAGACGGAG, for which the switch fluorescence ratio amounted to 1.07. Turning to GGGTATGAGT, the switch fluorescence ratio was 0.981. On to TTATTTAGA, for which the switch fluorescence ratio was 0.998.

In the case of TGGTCCTCTG, the switch fluorescence ratio turned out to be 1.03. TAGTCAGCTG: the switch fluorescence ratio is 0.969. Under TTAGATTGTA stands 1.03; under ACATTGCCTG, 0.996. With GCCAAACTTC, the switch fluorescence ratio came to 1.02.

On to TTTATGACCG, for which the switch fluorescence ratio worked out at 1.03. Turning to ACAGCCGCG, the switch fluorescence ratio is 1.18. In the case of AATAAAGCAC it was 1.1. In the case of CTATGCAAAT it was 1.38; in that of AGCAGTAAA, 0.974; in that of AGCGATCTCT, 1.32. In the case of AACACGTCCC, the switch fluorescence ratio is 1.07. Under TCGTTATGGC stands 1.04. Regarding GTGGAATCGC, the switch fluorescence ratio came to 0.994. Take TTTACAGAAT: the switch fluorescence ratio is 1.02.

For TAAGAATGTA, the switch fluorescence ratio is 1.03. In the case of CAATTGGCCA it was 0.922; in that of CGGGAACATC, 1.01; in that of TGCTGCTAAT, 1.46. In the case of TTTCCCGGGA it was 1.02; in that of TGCTGTAAGT, 1.

In the case of GAACCGAGAT, the switch fluorescence ratio is 1.02. As to TATTAAGCCC, the switch fluorescence ratio was found to be 1.

With TGCCTGGTCG, the switch fluorescence ratio was 1.04. GCTTGTATAG: the switch fluorescence ratio is 0.997. Under CATTACAGTA stands 1.13. In the case of TGAGTATGAG, the switch fluorescence ratio worked out at 1.06. For the sequence GCCAACTAGA, the switch fluorescence ratio turned out to be 1. Under TCACCACCGT stands 1.13. Under AGGGTTTAAG stands 0.973; under CAAACCCTGC, 1.15; under TGACTACTTT, 1.06. Consider GGTCAATTTA, for which the switch fluorescence ratio stood at 1.02. On to CTTACCAC, for which the switch fluorescence ratio stood at 1.08. Regarding AGGACCTATA, the switch fluorescence ratio was determined as 0.972.

For TCAGTATGGA, the switch fluorescence ratio was 0.959. In the case of GGGATGGT, the switch fluorescence ratio was found to be 1. Take GAGACCCTGA: the switch fluorescence ratio stood at 0.981.

Consider TTTACTCCGG, for which the switch fluorescence ratio is 1.57. Turning to AAATACAGAT, the switch fluorescence ratio was found to be 1.03. GTAGGGGCAC: the switch fluorescence ratio worked out at 1. CCCCACAGCT: the switch fluorescence ratio is 1.22. GAGCCGGTTC: the switch fluorescence ratio was 0.974. Consider GTTCGCATCG, for which the switch fluorescence ratio amounted to 1.02. Under AGCAACGTCC stands 1.13; under TGAAATTATT, 0.991; under GAGCGTTGTT, 1.02.

With TGCGGCTGAT, the switch fluorescence ratio turned out to be 0.974.

In the case of GTATGCGCTC, the switch fluorescence ratio turned out to be 0.985. For CGCACACAGT, the switch fluorescence ratio was 1.03. In the case of ACCTACGGTT it was 1.19. For TGGGCTCATC, the switch fluorescence ratio was determined as 0.994. As for TAAGACTAAT, the switch fluorescence ratio was 0.995. Regarding GATATTTACC, the switch fluorescence ratio amounted to 1.07. Turning to TACTCTCGTG, the switch fluorescence ratio is 1.03. Regarding TTCCTCATGT, the switch fluorescence ratio turned out to be 1.23.

For CCTCGCTTTT, the switch fluorescence ratio is 1.92. On to CGGATCGTTA, for which the switch fluorescence ratio worked out at 1.01. Under TCCGTATCTA stands 1.03; under ACGGCATCCC, 1.14; under CCATCCTAT, 1.01. On to CTAGAGGGAC, for which the switch fluorescence ratio worked out at 1.05. For ATGTTCTTGC, the switch fluorescence ratio amounted to 0.96. In the case of ACTCCCTGTT it was 1.28; in that of CTGCGGTATA, 1.06. As for GCAGCCGGGG, the switch fluorescence ratio was found to be 1.01. In the case of ACGTTGAGTC, the switch fluorescence ratio came out at 1.02.

With CGTGATTA, the switch fluorescence ratio came to 0.994. For the sequence CCAGGTCCTT, the switch fluorescence ratio is 1.07. For TTAACCTATC, the switch fluorescence ratio turned out to be 1.12. Under TGGGTACTC stands 0.966; under ATCCTCTTCC, 2.16. Turning to GCACCCCGAC, the switch fluorescence ratio turned out to be 1.32. For ACTTAACTGT, the switch fluorescence ratio amounted to 1.15. For CGGATTAGCT, the switch fluorescence ratio is 0.998.
